Experimental data reported in PMC4336329 (PLoS ONE, 2015).
Hit rate of the full screen: of about 310,000 compounds, about 14,000 (4.5%) showed an effect of 50% or more. The effect is printed as a negative number. This is one part of the list.

Each molecule was assayed against human ether-à-go-go-related gene (hERG) potassium channel (human, UniProt Q12809) (assay: primary screen, population patch clamp on CHO cells stably expressing hERG).
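Note: peak tail current of the secondary pulse compared with the same well before compound.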

Chain of human ether-à-go-go-related gene (hERG) potassium channel (Q12809 whole entry, looked up): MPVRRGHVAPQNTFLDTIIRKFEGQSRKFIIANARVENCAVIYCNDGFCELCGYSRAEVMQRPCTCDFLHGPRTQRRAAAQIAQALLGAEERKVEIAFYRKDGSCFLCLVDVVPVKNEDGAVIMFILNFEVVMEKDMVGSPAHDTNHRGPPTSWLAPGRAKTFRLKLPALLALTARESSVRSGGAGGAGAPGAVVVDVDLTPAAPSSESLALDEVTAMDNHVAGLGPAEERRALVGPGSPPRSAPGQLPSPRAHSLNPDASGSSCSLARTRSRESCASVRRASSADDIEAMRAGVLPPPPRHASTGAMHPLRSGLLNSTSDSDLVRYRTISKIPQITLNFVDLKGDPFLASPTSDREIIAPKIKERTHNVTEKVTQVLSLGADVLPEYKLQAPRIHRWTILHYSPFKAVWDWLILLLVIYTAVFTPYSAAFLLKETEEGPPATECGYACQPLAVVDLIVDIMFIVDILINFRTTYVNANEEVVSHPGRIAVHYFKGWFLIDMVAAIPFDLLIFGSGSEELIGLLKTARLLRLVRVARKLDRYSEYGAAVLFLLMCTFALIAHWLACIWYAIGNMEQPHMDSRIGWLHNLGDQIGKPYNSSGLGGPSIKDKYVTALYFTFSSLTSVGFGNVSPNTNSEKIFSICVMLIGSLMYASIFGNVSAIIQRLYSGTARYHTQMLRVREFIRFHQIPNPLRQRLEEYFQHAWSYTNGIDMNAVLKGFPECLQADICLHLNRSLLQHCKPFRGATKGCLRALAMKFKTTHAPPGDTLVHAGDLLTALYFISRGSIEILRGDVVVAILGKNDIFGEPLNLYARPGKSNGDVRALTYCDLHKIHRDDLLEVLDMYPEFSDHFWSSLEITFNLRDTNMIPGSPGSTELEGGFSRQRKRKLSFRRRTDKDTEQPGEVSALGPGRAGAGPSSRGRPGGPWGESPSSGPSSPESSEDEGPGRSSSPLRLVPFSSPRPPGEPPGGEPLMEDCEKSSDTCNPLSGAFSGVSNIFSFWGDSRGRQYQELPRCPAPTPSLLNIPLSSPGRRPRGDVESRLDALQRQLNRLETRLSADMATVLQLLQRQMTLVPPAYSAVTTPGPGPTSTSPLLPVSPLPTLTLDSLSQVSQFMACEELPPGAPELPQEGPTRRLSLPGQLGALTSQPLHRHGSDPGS

SMILES | hERG current change (%, negative = inhibition) at 10uM [%]
N/C(=N\OC(=O)CCCc1ccccc1)c1ccc([N+](=O)[O-])cc1 | -5.5
CC(C)NC(=S)N/N=C1\CCCCc2ccccc21 | -21.1
CCOc1cc(/C=C2\N=C3CCCCCN3C2=O)ccc1O | 4.6
C=CC1=C2C=C(C3CC3)N(CCCN(CC)CC)C=C2C(=O)C(C)(OC(=O)c2ccco2)C1=O (stereo not drawn) | 0.664
CCn1cc(C(=O)OCC(=O)Nc2cc(S(=O)(=O)N(C)C)ccc2C)c(=O)c2ccc(C)nc21 | -20.7
O=S(=O)(N1CCCCC1)n1c(Cc2ccccc2)nc2ccccc21 | -3.18
Cc1cc(C(F)(F)F)nn1Cc1ccc(C(=O)NCc2ccco2)o1 | 5.14
CCOc1cc(CNCc2ccccn2)ccc1OCC(=O)NC1CCCCC1.Cl | -5.62
COc1ccc(OC)c(-c2cc(C3CCN(C(=O)OC(C)(C)C)CC3)[nH]n2)c1 | 0.624
Cc1cccc(COc2ccc(/C(O)=C3\C(=O)C(=O)N(CCN(C)C)C3c3ccncc3)cc2)c1 (stereo not drawn) | 20.2
COc1ccc(NC(=O)Cc2nnc(SCC(=O)NC3CCCC3)n2C)cc1 | 15.3
O=C(CN1C(=O)c2ccccc2C1=O)N1CCN(c2ccccn2)CC1 | 11.4
CCOC(=O)c1ccc(NC(=O)c2ccc[n+]([O-])c2)cc1 | 4.73
CC/C(=N/OC(=O)c1cccc(C)c1)C(=O)c1cccs1 | -5.52
COc1ccccc1-c1c(-c2ccc(O)cc2O)n[nH]c1C(F)(F)F | 12.8
Cc1ccc(NCc2ccco2)cc1C.O=C(O)C(=O)O | 1.93
CC(=O)c1ccc(NC(=O)c2c(C)nn(-c3ccccc3)c2Cl)cc1 | 30.3
Cc1ccc(C(=O)NNC(=O)c2ccncc2)cc1C | 19.2
COC(=O)c1ccc(N2C(=O)C3CC=CC(C)C3C2=O)cc1 (stereo not drawn) | 19.3
CC(=O)c1cc(C(=O)Nc2ccccc2C(=O)O)oc1C | 6.28
CCC(=O)Nc1ccc(S(=O)(=O)Nc2cccc(C)c2)cc1OC | -15.6
C=CCn1c(SCc2ccc3c(c2)OCO3)nc2scc(-c3ccco3)c2c1=O | -0.351
O=C(NCC1CCCO1)c1cccc(Oc2c(Cl)cccc2[N+](=O)[O-])c1 (stereo not drawn) | -0.562
CCOC(=O)C1=C(C)N=C2c3ccccc3C(=O)C2C1c1ccc(C)cc1 (stereo not drawn) | 12.7
COc1ccc(NC(=O)C2CCCN2S(=O)(=O)c2ccc(F)cc2)cc1 (stereo not drawn) | -16.6
CC(CC(=O)NCc1ccco1)S(=O)(=O)c1ccc2c(c1)CCN2C(=O)C1CC1 (stereo not drawn) | 5.62
COc1ccccc1NC(=O)c1oc2ccc(C)cc2c1C | 14.1

SMILES | hERG current change (%, negative = inhibition) at 10uM [%]
O=C(COc1ccc2c3c(c(=O)oc2c1)CCCC3)NCCN1CCOCC1 | 1.37
CCOP(=O)(OCC)c1nc(/C=C/c2ccccc2)oc1NCc1ccc(OC)cc1 | -13.1
COc1ccccc1NS(=O)(=O)c1c(C(=O)N2CCCC2)c(C)n(C)c1C | 14.8
Clc1nc(CN2CCCCC2)nc2sc3c(c12)CCCC3 | -23.1
COCCn1c(C)cc(/C=C2/SC(=O)N(CC(=O)N3CCCC3)C2=O)c1C | -23.8
COc1ccc(CC(=S)NCCc2ccccc2)cc1 | 8.33
Cc1ccc(-c2cc(C(=O)N3CCOCC3)c3ccccc3n2)cc1 | -3.91
COc1ccc(CNC(=O)C2CCN(S(=O)(=O)c3ccc4c(c3)CC(C)N4C(C)=O)CC2)cc1 (stereo not drawn) | 3.7
NC(=S)Nc1cccc2[nH]ncc12 | 7.19
C[C@H](NC(=O)c1nc[nH]c1C(=O)N1CC[NH2+]CC1)C(=O)OCc1ccccc1.[Cl-] | 11.6
CC(CN1CCCC1)C(=O)NN (stereo not drawn) | 0.0741
Cc1csc(C2=C(O)CN(CCc3ccccc3)C2=N)n1 | 1.95
COc1ccc(/C(C)=N/NC(=O)c2ccc(CSc3cccc4cccnc34)cc2)cc1OC | -21.2
CCN(CC)CCN1C(=O)C(=O)/C(=C(/O)c2c(C)[nH]c(C(=O)OC)c2C)C1c1ccccc1OC (stereo not drawn) | 20.8
O=C(c1nc2ccccn2c1CN1CCN(c2ccccc2O)CC1)N1CCCC1 | 34.7
c1coc(CNCCCN2CCOCC2)c1 | -0.128
O=C(CCSc1ccccc1)Nc1nnc(-c2ccccc2)o1 | 7.27
CCCc1c(C(=O)N/N=C/c2ccco2)nnn1-c1nonc1N | 11.6
CCC1CCCCN1CCCNC(=O)Cn1cnc2sc(C)c(S(=O)(=O)N3CCC(C)CC3)c2c1=O (stereo not drawn) | 3.65
CCOc1cc(N2CCOCC2)c(OCC)cc1NC(=O)CSc1nccc(C)n1 | -39.5
Cc1cc(O)c(C=Nc2ccc(N3CCOCC3)cc2)c(C)c1Cl | 18.5
Cc1ccc(C(=O)N/C(=C\c2ccc(-c3ccccc3[N+](=O)[O-])o2)C(=O)NCCN(C)C)cc1 | -55.4
CCOC(=O)N1CCC(NC(=O)C(NS(=O)(=O)c2ccc3c(c2)CCN3C(C)=O)C(C)C)CC1 (stereo not drawn) | 4.79
N#Cc1ccc(C23CC4(C2)[C@H](CN(Cc2ccc(C(F)(F)F)cc2)[C@@H]4c2ccccc2)C3c2ccccc2)cc1 (stereo partly drawn) | 13.5
COc1ccc(CCNC(=O)c2ccc(S(=O)(=O)N3CCCCC3)cc2)cc1 | 9.55
O=C(Cc1cccc2ccccc12)N/N=C/c1ccc(Sc2cccc3cccnc23)o1 | 2.87
O=C(Cn1cnc2ccccc2c1=O)c1ccccc1 | -0.492
